Results: PubChem BioAssay AID894 (National Center for Advancing Translational Sciences (NCATS), 2007)
“And” between values parts separate entries of the source, which are not always exact repeats. Equal entries are not always repeated. The whole screen tested about 150,000 compounds, of which about 6,500 (4.3%) were called active. Inconclusive means that the source gave no clear call. Such entries were picked first, then a sample of the others. Calls follow the shape of the dose curve; as a rule, active = well fitted inhibition curve with a large enough effect (not every such curve was filed as active); inconclusive = small, poorly fitted or top-dose-only effect, or another doubt; inactive = no such curve, though single readings can be large or run the other way. Potencies of inconclusive entries are left out as doubtful fits.

target: 15-hydroxyprostaglandin dehydrogenase [NAD(+)] (Homo sapiens) (UniProt P15428); experiment: qHTS Assay for Inhibitors of HPGD (15-Hydroxyprostaglandin Dehydrogenase); conditions: purified HPGD, NADH fluorescence kinetic, PGE2 substrate; activity change, negative = inhibition: stronger effect = lower value
Procedure, shortened: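 NADH formation kinetics: reaction with 30 uM PGE2 and 1 mM NAD+ (final), 20 nM enzyme, Tris-HCl pH 8 with Tween 20, after 15 min compound preincubation at room temperature. Fluorescence change, last versus first of five reads.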
% is scaled to controls: 0 for no effect and ±100 for the full control effect; potency is read from the fitted curve at half-maximal effect; tags tell the direction and shape of the fitted curve.

Sequence of UniProt P15428 (P15428 whole entry, looked up): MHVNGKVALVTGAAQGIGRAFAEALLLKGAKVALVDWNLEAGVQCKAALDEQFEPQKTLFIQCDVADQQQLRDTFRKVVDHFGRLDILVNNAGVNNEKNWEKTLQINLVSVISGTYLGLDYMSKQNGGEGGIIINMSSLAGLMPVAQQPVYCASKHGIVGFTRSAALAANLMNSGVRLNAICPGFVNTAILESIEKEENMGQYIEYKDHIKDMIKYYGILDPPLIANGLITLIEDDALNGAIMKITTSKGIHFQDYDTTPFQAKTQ

| Compound | Potency | activity change, negative = inhibition |
| --- | --- | --- |
| Oc1ccc2c(c1)C1CCCC1(N1CCOCC1)O2 (centres undefined) | inconclusive [inhibitor, single point] |  |
| Cc1ccc(Cn2c(Sc3nnc(C)s3)nc3c2c(=O)[nH]c(=O)n3C)cc1 |  | inactive: -2.1% |
| CCn1c2ccccc2c2cc(N)ccc21 | inconclusive [inhibitor, partial curve] |  |
| COC(=O)c1cccc(NC2CC(=O)N(c3ccc(OC)c(OC)c3)C2=O)c1 (centres undefined) | inconclusive [inhibitor, partial curve] |  |
| Cc1cccc(CNc2ccnc(-c3cccnc3)n2)c1 | inconclusive [inhibitor, partial curve] |  |
| Nc1c(S(=O)(=O)c2cccc(Cl)c2)c2nc3ccccc3nc2n1CCN1CCOCC1 | inconclusive [inhibitor, partial curve] |  |
| CN(C#N)c1nc(Cl)nc(Nc2cccc(Cl)c2)n1 |  | inactive: -21.2% |
| CCOC(=O)c1cc(-c2ccc(C)cc2)nc2nc(SC)[nH]c(=O)c12 | inconclusive [inhibitor, partial curve] |  |
| N#CC1=C2SCN(Cc3ccco3)CN2C(=O)CC1c1ccc(Cl)cc1 (centres undefined) | active: 11.2 µM |  |
| N#CC1(C#N)COC23CCCCC2C1(C#N)C(=N)O3 (centres undefined) | inconclusive [inhibitor, partial curve] |  |
| COc1ccc(C(=O)NNC(=S)NC2CCCCC2)cc1OC |  | inactive: -5.27% |
| COc1ccc(-c2cc(C(=O)OCC(=O)N3CCCC3)c3ccccc3n2)cc1 | inconclusive [inhibitor, partial curve] |  |
| COC(=O)/C(=C/c1c[nH]c2ccccc12)NC(C)=O |  | inactive: -9.38% |
| CN(Cc1ccccc1)C(=O)[C@H](Cc1ccc2ccccc2c1)NC(=O)[C@@H]1C[C@@H](O)CN1C(=O)c1cn(C)c2ccccc12 |  | inactive: -8.44% |
| Cc1ccccc1Nc1nc(N)nc(CSc2ccccc2)n1 |  | inactive: -2.99% |
| CCn1c(=O)cc(SCC(=O)NCCC2=CCCCC2)c2ccccc21 | active: 7.08 µM |  |
| CSc1nc2ccc3nc(NC(=O)c4cccs4)sc3c2s1 | inconclusive [inhibitor, partial curve] |  |
| Cc1cccc(N=CC=C2OC(C)(C)C(C)(C)O2)c1 | inconclusive [inhibitor, partial curve] |  |
| COc1ccc(-c2noc(-c3ccc(Cl)cc3[N+](=O)[O-])n2)cc1OC | active: 17.8 µM |  |
| CCCCCc1c(O)c2ccccc2[nH]c1=O | inconclusive [inhibitor, partial curve] |  |
| CC(OC(=O)c1c2c(nc3ccccc13)/C(=C\c1ccc3c(c1)OCO3)CCC2)C(=O)Nc1ccc(S(N)(=O)=O)cc1 (centres undefined) | inconclusive [inhibitor, partial curve] |  |
| C=CCn1c(SCC(=O)c2ccc(O)c(O)c2)nnc1-c1ccccc1OC |  | inactive: -13% |
| COc1cc2nc(N3CCN(C(=O)OCc4ccccc4)C(C(=O)NC(C)(C)C)C3)nc(N)c2cc1OC (centres undefined) | inconclusive [inhibitor, partial curve] |  |
| Cc1cccc2c1-c1sc(C(=O)Nc3cccc([N+](=O)[O-])c3C)cc1CO2 | inconclusive [inhibitor, partial curve] |  |
| O=[N+]([O-])c1ccccc1/C=N/n1c(-c2cccnc2)n[nH]c1=S | inconclusive [inhibitor, partial curve] |  |

| Compound | Potency | activity change, negative = inhibition |
| --- | --- | --- |
| CC1CC(=O)N(CC(=O)N2CCCC2)c2ccccc2S1 (centres undefined) |  | inactive: -5.64% |
| COc1cc(Cl)c(C)cc1NC(=O)[C@@H]1CCCN1C(=O)c1cccs1 |  | inactive: -4.97% |
| COc1cc(C(=O)NCCOc2cc(C)cc(C)c2)c(Br)c(OC)c1OC |  | inactive: -6.61% |
| Cc1ccc(-c2nnc(-c3ccc(NC(=O)Cc4cccs4)cc3)o2)cc1 | inconclusive [inhibitor, partial curve] |  |
| OC(c1ccc(Cl)cc1)c1nnc(-c2ccccc2)o1 (centres undefined) | active: 17.8 µM |  |
| Cc1ccc2c(c1)c(=O)c1c3n2CCN(C(=O)CCl)C3CC1 (centres undefined) | inconclusive [inhibitor, partial curve] |  |
| O=C(NCCCN=C1NS(=O)(=O)c2ccccc21)c1ccc(S(=O)(=O)N2CCCCC2)cc1 |  | inactive: -18.7% |
| CCc1cc(C(N)=S)ccn1 |  | inactive: 0.0502% and inactive: -2.91% and inactive: 0.0414% |
| Cc1ccc(C(=O)NCCCCNC(=O)c2ccc(C)o2)o1 | inconclusive [inhibitor, partial curve] |  |
| CN(C)c1nc(OCCOC(=O)COc2ccc(Cl)cc2Cl)nc(N(C)C)n1 |  | inactive: -4.94% |
| Cc1cc(=S)[nH]c2ccccc12 | active: 14.1 µM |  |
| Nc1ccc(-c2nc3ccc(N)cc3o2)cc1 | inconclusive [inhibitor, partial curve] |  |
| Cc1cc(C)nc(SCNC(=O)c2ccc(Cl)cc2)n1 | active: 28.2 µM |  |
| CCOC(=O)c1ccc2ncc(C(=O)OCC)c(NCc3ccco3)c2c1 | inconclusive [inhibitor, partial curve] |  |
| CC(C)c1ccc(NC(=O)CCNS(=O)(=O)c2cccc3nonc23)cc1 |  | inactive: -25.8% |
| CC(=O)Nc1ccc(S(=O)(=O)Nc2ccc([N+](=O)[O-])cc2)cc1 | active: 22.4 µM |  |
| CC(/C=N\NC(=O)c1ccc(C)nc1)=C\c1ccccc1 |  | inactive: -15% |
| CCOC(=O)c1ccccc1NC(=O)Cn1cnc2c(oc3ccccc32)c1=O | inconclusive [inhibitor, partial curve] |  |
| CC1=NN(c2ccc(C)c(C)c2)C(=O)C1C(c1cccc(O)c1)C1C(=O)N(c2ccc(C)c(C)c2)N=C1C (centres undefined) | active: 10 µM |  |
| Cc1ccnc(NC(=S)NC(=O)c2cccs2)c1 |  | inactive: -9.51% |
| CCSc1ccccc1C(=O)Nc1nncs1 | inconclusive [inhibitor, partial curve] |  |
| CCOC(=O)c1[nH]c2cc(OC)c(OC)cc2c1NC(=O)CN(C)C1CCCCC1 | inconclusive [inhibitor, partial curve] |  |
| CNS(=O)(=O)c1ccc(N2CCCC2=O)c([N+](=O)[O-])c1 |  | inactive: -12.5% |
| O=C(CCSCc1ccccc1Cl)NC1CCCC1 | active: 11.2 µM |  |
| c1ccc2c(c1)nnn2Cc1nnc2sc(-c3ccc4c(c3)OCCO4)nn12 | inconclusive [inhibitor, partial curve] |  |

| Compound | Potency | activity change, negative = inhibition |
| --- | --- | --- |
| OCCNc1nc(-c2cccnc2)nc2ccccc12 | inconclusive [inhibitor, partial curve] |  |
| COc1cc(/C=N/NC(=O)c2cccc([N+](=O)[O-])c2)ccc1OCc1ccccc1 | inconclusive [inhibitor, single point] |  |
| CC(=O)N1CCC2(CCN(Cc3cc(C(F)(F)F)cc(C(F)(F)F)c3)CC2)CC1 |  | inactive: -9.93% |
| COc1ccc(-c2cc(C(F)(F)F)nc(S(C)(=O)=O)n2)cc1 | inconclusive [inhibitor, partial curve] |  |
| CCOc1cc(-c2noc(N)c2C#N)cc(OCC)c1OCC |  | inactive: -24% |
| O=C(c1ccc(N2CCOCC2)nc1)N1CCCCC1 | inconclusive [inhibitor, partial curve] |  |
| CCc1nnc(NC(=O)CSc2nnnn2-c2cccc(C(=O)OC)c2)s1 | active: 14.1 µM |  |
| Cn1cc(C2=C(c3ccc(Cl)cc3Cl)C(=O)NC2=O)c2ccccc21 |  | inactive: -0.903% and inactive: 2.59% |
| O=C(NCC1CCCO1)c1coc2nc3ccccc3nc12 (centres undefined) | inconclusive [inhibitor, partial curve] |  |
| Cn1c(SCC(=O)N/N=C/C=C/c2ccco2)nc2ccccc21 |  | inactive: -25.1% |
| CCN(CC)CCn1c(NC(=O)c2ccc(Cl)cc2)nc2ccccc21 | inconclusive [inhibitor, single point] |  |
| Cc1ccc(CSCCNC(=O)/C=C/c2ccccc2Cl)cc1 | active: 8.91 µM |  |
| CC1(C)CC(=O)C2=C(C1)OC(N)=C(C#N)C21CCN(C(=O)OCc2ccccc2)CC1 |  | inactive: -27.3% |
| Cc1ccc(N2C(=O)/C(=C\c3ccc(C(C)C)cc3)N=C2SC2CCOC2=O)cc1 (centres undefined) | inconclusive [inhibitor, partial curve] |  |
| Fc1cccc(Nc2nc(-c3ccncc3)nc3ccccc23)c1 | inconclusive [inhibitor, partial curve] |  |
| CC(C)(C)c1csc(NC(=O)Cn2cnc3ccccc3c2=O)n1 | active: 20 µM |  |
| Cc1cc(C)nc(NS(=O)(=O)c2ccc(NC(=O)c3ccc(N4C(=O)CCC4=O)cc3)cc2)n1 |  | inactive: 0.263% |
| Cc1nn2c(nc(N3CCCCC3)c3ccccc32)c1C=O | inconclusive [inhibitor, partial curve] |  |
| S=c1[nH]nc(-c2ccc(Cl)cc2)n1-c1ccc2c(c1)OCCO2 | active: 14.1 µM |  |
| CCOc1ccc(Nc2oc(-c3ccco3)nc2C#N)cc1 | inconclusive [inhibitor, partial curve] |  |
| CCc1c(C(=O)Nc2ccccc2)c(C)[nH]c(=S)c1C#N | active: 20 µM |  |
| Cn1cccc1-c1nc2ccc(NC(=O)c3cccs3)cc2[nH]1 |  | inactive: -21.4% |
| CCCC(=O)C1=C(c2ccccc2)C(C#N)(C#N)C(C#N)=C1N | active: 1.41 µM |  |
| CCc1cc(=O)oc2cc(OCC(=O)N3CCc4ccccc43)ccc12 | inconclusive [inhibitor, single point] |  |
